Results published in article PMC3906830 (The Febs Journal, 2013).

What was measured:
[1] = target: T1, WAP, Kazal, immunoglobulin, Kunitz and NTR domain-containing protein 1 (WFIKKN1), recombinant human (human, UniProt Q96NZ8 20-548); assay: SPR
T1 sequence (looked up): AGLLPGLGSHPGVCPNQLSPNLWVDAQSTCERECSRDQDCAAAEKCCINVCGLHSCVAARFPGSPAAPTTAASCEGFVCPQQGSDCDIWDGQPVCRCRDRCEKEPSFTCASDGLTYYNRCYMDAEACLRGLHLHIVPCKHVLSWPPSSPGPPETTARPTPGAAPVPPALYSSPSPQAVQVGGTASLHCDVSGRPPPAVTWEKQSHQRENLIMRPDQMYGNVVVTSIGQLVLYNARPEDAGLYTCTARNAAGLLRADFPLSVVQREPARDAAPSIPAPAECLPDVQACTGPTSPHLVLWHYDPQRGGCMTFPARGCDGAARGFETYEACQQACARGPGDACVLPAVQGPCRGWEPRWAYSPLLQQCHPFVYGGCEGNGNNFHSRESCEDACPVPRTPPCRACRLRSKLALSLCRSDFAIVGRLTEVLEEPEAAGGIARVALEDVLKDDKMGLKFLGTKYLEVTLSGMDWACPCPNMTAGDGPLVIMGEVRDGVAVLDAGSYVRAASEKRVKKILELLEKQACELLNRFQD

[2] = target: T2, mature myostatin (human, UniProt O14793 267-375); assay: SPR
T2 sequence (looked up): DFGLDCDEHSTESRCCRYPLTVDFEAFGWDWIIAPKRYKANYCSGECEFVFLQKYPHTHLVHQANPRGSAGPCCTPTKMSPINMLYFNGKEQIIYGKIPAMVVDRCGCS

Kd [1]: 20 nM | IC50 [2]: ~10 nM
B1: recombinant myostatin prodomain (domain or fragment)
chain: not shown
